According to the supplement of paper PMC4967469:

Legend:
Assay in all cases: Viability of human cancer cell lines after 72 h of drug (GDSC screen)
[1] = compound: CO[C@@H]1[C@H](N(C)C(=O)c2ccccc2)C[C@H]2O[C@]1(C)n1c3ccccc3c3c4c(c5c6ccccc6n2c5c31)C(=O)NC4 [Midostaurin]; details: top dose 0.512 µM; top dose inferred
Procedure: (§1)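 Human cancer cell lines in 384-well plates, medium with 10% serum, drug for 72 h over a 256-fold dose range (nine 2-fold or five 4-fold steps up to the top dose). Adherent lines were fixed and stained with the nucleic acid dye Syto60, suspension lines read with resazurin; signal relative to control wells, capped at 0 and 100%. One two-parameter sigmoid per drug and line, fitted in a mixed model over all curves with the slope shared within a line.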

[2] = compound: CO[C@@]12[C@H](COC(N)=O)C3=C(C(=O)C(C)=C(N)C3=O)N1C[C@@H]1N[C@@H]12 [Mitomycin C]; details: top dose 16 µM
Procedure: as §1

[3] = compound: O=C(O)CNC(=O)c1c(O)c2ccccc2n(Cc2ccccc2)c1=O [IOX2]; details: top dose 0.1 µM; top dose inferred
Procedure: as §1

[4] = compound: Cc1ccc(C(=O)Nc2cccc(C(F)(F)F)c2)cc1Nc1nc(-c2cccnc2)nc2c1cnn2C [NVP-BHG712]; details: top dose 10.24 µM; top dose inferred
Procedure: as §1

[5] = compound: COc1cc(Nc2c(C#N)cnc3cc(OCCCN4CCN(C)CC4)c(OC)cc23)c(Cl)cc1Cl [Bosutinib]; details: top dose 2 µM
Procedure: as §1

Row | Cell Line | AUC [1] | IC50 [1] [nM] | AUC [2] | IC50 [2] [nM] | AUC [3] | IC50 [3] [nM] | AUC [4] | IC50 [4] [nM] | AUC [5] | IC50 [5] [nM]
1 | CCF-STTG1 (glioma, adherent) | 0.807 | 265 | 0.303 | 279 | 0.98 | > 100 | 0.867 | 9400 | 0.988 | > 2000
2 | CCK-81 (large intestine, adherent) | 0.984 | > 512 | 0.457 | 768 | 0.989 | > 100 | 0.894 | > 10200 | 0.899 | > 2000
3 | CFPAC-1 (pancreas, adherent) | 0.873 | > 512 | 0.209 | 120 | 0.98 | > 100 | 0.977 | > 10200 | 0.983 | > 2000
4 | CHL-1 (melanoma, adherent) | 0.875 | 452 | 0.241 | 189 | 0.986 | > 100 | 0.909 | > 10200 | 0.729 | 536
5 | CHP-212 (neuroblastoma, adherent) | 0.724 | 131 | 0.066 | < 62.5 | 0.974 | > 100 | 0.988 | > 10200 | 0.91 | > 2000
6 | CHSA0011 (chondrosarcoma, adherent) | 0.824 | 484 | 0.85 | > 16000 | 0.977 | > 100 | 0.946 | > 10200 | 0.973 | > 2000
7 | CHSA0108 (chondrosarcoma, adherent) | 0.687 | 117 | 0.738 | 5400 | 0.982 | > 100 | 0.846 | 9270 | 0.931 | > 2000
8 | CHSA8926 (chondrosarcoma, adherent) | 0.647 | 97.2 | 0.915 | > 16000 | 0.972 | > 100 | 0.978 | > 10200 | 0.917 | > 2000
9 | COLO-320-HSR (large intestine, suspension) | 0.989 | > 512 | 0.505 | 1030 | 0.991 | > 100 | 0.899 | 9960 | 0.99 | > 2000
10 | COLO-678 (large intestine, semi-adherent) | 0.946 | > 512 | 0.662 | 3220 | 0.983 | > 100 | 0.977 | > 10200 | 0.926 | > 2000
11 | COLO-680N (oesophagus, adherent) | 0.878 | > 512 | 0.335 | 318 | 0.974 | > 100 | 0.986 | > 10200 | 0.97 | > 2000
12 | COLO-783 (melanoma, adherent) | 0.99 | > 512 | 0.838 | 10200 | 0.99 | > 100 | 0.916 | > 10200 | 0.991 | > 2000
13 | COR-L23 (large cell lung carcinoma, adherent) | 0.973 | > 512 | 0.286 | 254 | 0.972 | > 100 | 0.934 | > 10200 | 0.916 | > 2000
14 | CP50-MEL-B (melanoma, adherent) | 0.984 | > 512 | 0.478 | 874 | 0.976 | > 100 | 0.72 | 2660 | 0.988 | > 2000
15 | CS1 (bone, adherent) | 0.876 | > 512 | 0.623 | 2280 | 0.971 | > 100 | 0.884 | > 10200 | 0.899 | > 2000
16 | CaR-1 (large intestine, adherent) | 0.871 | > 512 | 0.42 | 541 | 0.975 | > 100 | 0.923 | > 10200 | 0.91 | > 2000
17 | Calu-3 (lung adenocarcinoma, adherent) | 0.793 | 303 | 0.321 | 275 | 0.962 | > 100 | 0.983 | > 10200 | 0.983 | > 2000
18 | Caov-4 (ovary, adherent) | 0.91 | > 512 | 0.504 | 1030 | 0.965 | > 100 | 0.948 | > 10200 | 0.98 | > 2000
19 | Capan-2 (pancreas, adherent) | 0.913 | > 512 | 0.634 | 2550 | 0.975 | > 100 | 0.932 | > 10200 | 0.985 | > 2000
20 | DBTRG-05MG (glioma, adherent) | 0.889 | > 512 | 0.403 | 517 | 0.946 | > 100 | 0.83 | 8030 | 0.87 | > 2000
21 | DK-MG (glioma, adherent) | 0.876 | > 512 | 0.852 | > 16000 | 0.975 | > 100 | 0.857 | > 10200 | 0.978 | > 2000
22 | DMS-53 (small cell lung carcinoma, adherent) | 0.98 | > 512 | 0.433 | 649 | 0.967 | > 100 | 0.988 | > 10200 | 0.983 | > 2000

Lines with a small IC50 respond at low doses; a fit beyond the top or the lowest dose is shown as a bound at that dose. The AUC spans the tested range (256-fold, ending at the top dose) of the same fit; values near 1 show little effect. For some of these results: A top dose marked as inferred is not printed in the source and was worked back from the curve model.
